Laboratory results as given in the supplement of paper PMC3334620.
Over roughly 33,000 sequences, “E-score (-0.5 to 0.5)” has its median near -0.017; the highest 2% begin near 0.3. The list shows a part of the results.

molecular target: T1, Sut1 (UniProt P53032); experiment: PBM E-score (8-mer binding enrichment) (E-score (-0.5 to 0.5)); higher = stronger / more preferred TF binding; most listed sequences are background and not binding sites; details: protein concentration: 200 nM; construct: GST-full length
T1 sequence: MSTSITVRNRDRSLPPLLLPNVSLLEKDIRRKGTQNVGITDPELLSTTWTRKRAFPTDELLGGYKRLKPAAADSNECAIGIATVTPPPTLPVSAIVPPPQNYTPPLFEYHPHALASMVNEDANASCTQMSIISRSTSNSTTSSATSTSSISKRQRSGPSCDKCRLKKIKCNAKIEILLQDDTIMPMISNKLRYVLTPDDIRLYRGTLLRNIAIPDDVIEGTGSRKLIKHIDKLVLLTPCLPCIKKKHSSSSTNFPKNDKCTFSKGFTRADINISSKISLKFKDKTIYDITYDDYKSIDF
Procedure: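 Universal 'all 10-mer' protein binding microarrays (Agilent AMADID 015681) probed with GST-tagged S. cerevisiae TFs (full-length or DBD) made by in vitro transcription/translation (PURExpress), about 100-200 nM. Bound TF was detected with fluorescent anti-GST. Each ungapped 8-mer (which stands for itself and its reverse complement) is scored by the PBM enrichment score (E-score), a modified Wilcoxon-Mann-Whitney statistic from -0.5 to +0.5, computed with the Universal PBM Analysis Suite. Scale: above 0.35 generally sequence-specific binding.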

Sequence	PBM E-score
AGTGCTGC	-0.00589
AACCCATA	0.0141
ATCGCCGG	0.266
ACCGTCGG	-0.0456
AGTGACTG	0.00842
AGCTCAAC	-0.069
GCTCCACC	-0.139
ACCCCTCG	-0.252
GTTTTTAA	0.209
ATAGAATC	0.158
AATTACGG	0.226
ACATGATG	-0.0261
AACTCGGT	0.0362
AATGAAAT	0.208
AACATTGT	0.206
AGTATCCC	-0.192
AAAAAGAA	0.225
GCTCTACC	-0.282
TCTCTGAA	-0.135
AGCCCGGC	0.00111
CCCACAGC	-0.225
AAAGTACT	-0.0529
CCAGACCG	0.0773
CATCCACC	-0.0255
GTAAGAAA	-0.00358

Sequence	PBM E-score
AGCCTCGC	-0.308
AGCATTGG	-0.159
AACGAGTC	-0.049
GTGAGTCA	-0.102
ATTAGTGA	0.207
CATAACCA	-0.11
GTACAAAC	0.0652
GCGTGGAA	-0.0811
TATGGTAA	0.0166
GGCATGTA	-0.0345
ATAATTAG	0.235
AAAGCGTC	-0.181
TCCCATCA	-0.241
ACCATGTG	-0.0621
ACTCTACC	0.0499
ATCATGCC	-0.0529
TGGAAGAA	0.141
GGTGGTAA	0.174
AACCCAGG	-0.175
ATTGCGAA	-0.0685
AGTCGGTA	-0.0112
GTCAAGTA	-0.196
CGAAAGTC	0.0394
GTCCACTA	-0.0452
AGTAAAAG	0.191

Sequence	PBM E-score
CACTGCGC	-0.235
AAAGAGTG	0.0512
GAGACTCC	0.207
CAAAAGTG	-0.13
CGCTGTCC	-0.0487
AGGAGAGA	-0.0542
AGTGTACA	0.0106
AGGGGAGA	-0.303
TTTTAAAA	0.217
GTGGCTTA	-0.207
CGGTAGGC	-0.216
CTTCCAAC	-0.13
CGCAGTCC	-0.0495
GAGGCTTA	0.0145
CGTAGCAA	-0.0358
AAGCTGCT	-0.132
TAGACGGA	0.181
GAGCTTTA	0.0948
GCGGGACC	-0.0718
ACCTCACT	0.0751
CCTCGAGA	-0.087
ACACGTAG	-0.166
TCTCGGCA	0.00619
CCCCTTAA	-0.167
ACACATAA	0.223

Sequence	PBM E-score
GCACGCAC	-0.135
AACGGGAG	0.15
TCACGCGA	-0.0127
CAGATGGG	-0.192
ACCATCGT	-0.189
GTCCCGGA	0.348
ACCGAATA	0.0367
CAAGACGG	-0.196
AGCACAAA	0.112
GAGTTTTA	0.255
CACCATGC	-0.315
CCCGACGA	0.0804
CCTAGTAG	-0.196
ATTGATAA	0.236
CCTGGTAA	-0.0626
CGGCGTTC	0.0383
GCGGAATA	0.217
GCATGAAC	-0.0057
CATCGCAC	-0.0701
CGCGTCTC	-0.064
TCAGGACA	-0.0448
GACCGTTA	0.00635
CGCATACA	0.0452
TATACAGA	0.154
GCGGTAGA	-0.17

Sequence	PBM E-score
ACTCTTAT	0.249
GGCGTTCA	0.0231
ACCTAAAA	0.0939
ACCCACTG	-0.198
CAGTACCC	-0.117
CCAGTAGG	-0.302
ACGAATAG	0.0991
CTCCTAGC	-0.221
TATTACCA	0.0862
ACTCTCCG	0.27
ACACTACA	0.0792
CGTGACGA	-0.0824
TCCCGCAA	0.0786
GATCACGC	0.193
GGAGTTGA	0.29
ACGGAGGC	-0.0143
AAGCGCAT	-0.118
CGAGTCGC	-0.188
GACAACAC	-0.0824
ACCAATTA	0.234
TATAGTAA	0.271
CCCCCCTC	-0.362
TAGTACGA	0.135
ATGCGCGG	-0.0955
AAACTGCG	-0.0974

Sequence	PBM E-score
GTTTGTTA	0.122
ATGGCAGA	-0.0417
ATTGATCG	0.0773
CAACGTGA	0.0149
CCGCGCCG	-0.00447
CCCGAGTC	0.00022
ATGATGCG	-0.0816
TACGTTCA	0.0513
CACACCAC	-0.032
AATCCTTC	-0.0568
ACACCAAC	-0.0314
GGTCCGAA	0.437
ACGCTACA	0.11
GCGGAACC	-0.0529
TACATATA	0.261
CCATCTTC	0.0635
TCACAGGA	-0.0247
TGTTGTAA	0.156
AGACTAGA	-0.184
CCTTGCCC	0.0934
AAAACTTA	0.274
AGCCAAGG	-0.188
ATTTACAA	0.181
TCCGTCAA	0.286
ATAACTTG	0.043

Sequence	PBM E-score
AATAACCG	0.131
AATTTCAG	-0.00523
ACGGCCCC	-0.423
ACAGCAAG	0.0276
GAAGCGGC	-0.213
AACTAGCC	-0.0509
GACGTGAA	-0.149
AGGGGGGC	-0.332
CTAGTCGC	-0.144
CTAGACAA	0.0963
CAGGAACA	0.0351
CCCGATAA	-0.131
TCTGTGAA	0.13
TATATTCA	0.281
GTATTGCA	-0.031
CCAAGTGG	-0.155
CGCTCGGA	0.29
TAGTACCA	0.0484
CAGTTATA	0.119
ACCTTCCT	-0.118
CCGTAGAC	0.084
AACCCCTC	-0.198
CAATAACG	0.0501
ACGTGTTC	-0.037
TACGCTAA	-0.00118

Sequence	PBM E-score
TATATGGA	0.114
CAAAAAAA	0.267
CATCAGCG	-0.175
AGTTCCAC	0.0638
CGGCGCGC	-0.0694
ATCCAAAC	0.116
AGATTCAC	-0.0436
AACCAGCC	-0.0257
CTTATTTA	0.101
TAGGCCGA	-0.0748
GCACCGGA	0.338
CCAATACC	0.0874
AAAAGGTC	-0.0965
CAACATGC	-0.0131
CTGTTTTA	0.091
CGAGTGGA	-0.109
ACCTAGAT	-0.183
CGTCCGTA	0.0823
CAACAATC	0.113
CTTGTCCA	-0.139
ATAGCGAA	0.157
GTCACAGA	-0.134
CAACTCGC	-0.0138
CCCTCTAA	-0.262
CACGTACG	-0.207

Sequence	PBM E-score
AGACGGTC	-0.103
TGAGAGAA	0.138
AACGGGAC	-0.0788
TGTTCTAA	0.119
CACCCCGA	0.134
CGCGCGCA	-0.0131
ATCCTCGC	-0.216
GCACGTCC	-0.142
ACCCGGGC	-0.0147
ATAAGCAG	0.0365
CCTAGAGG	-0.323
AAGTTACT	0.0828
GTTGACCA	-0.067
ACTATACC	0.102
CGTACGGA	0.228
TCAATACA	0.141
ATAACACC	0.188
GTGTGCTA	0.021
AGCGAGTG	-0.106
